Consider 10 molecules from US12116397B2, “IL-IR-I binding polypeptide” (Swedish Orphan Biovitrum AB (publ), priority 2017, dated 2024).

Changes are numbered by the printed parent chain.

The test system of one series is TF-1 cells. Description: In vitro IL-1β neutralization assay (TF-1 cell assay). Format: cell-based. Particulars: His6-Z polypeptides, IL-1β inhibition in TF-1 cell assay, Table 20 (Example 9). The protocol:
The TF-1 cell line proliferates in response to many different cytokines including IL-1β. This cell line was used to assess the ability of primary IL-1R1 binders to inhibit IL-1β actions. TF-1 cells were maintained in RPM11640 with L-glutamine (Lonza) supplemented with 10% FCS (Gibco), Penicillin-Streptomycin (Lonza) and 2 ng/ml rhGM-CSF (R&D Systems). Prior to use, cells were washed twice in RPM11640 without rhGM-CSF. Cells were then counted and dispensed into 96 well flat bottomed plates at a density of 3×10^4 cells per well. In separate plates, serial dilutions of the inhibitory binders; His6-tagged IL-1R-I binding Z variants, with a concentration range of 400-0.1 nM, or the IL-1R-I binding protein Kineret (anakinra, Sobi), with a concentration range of 0.3-0.0003 nM, were incubated in the presence of 0.6 nM IL-1β (PeproTech). The pre-mixed complexes of the Z variant polypeptides and IL-13 were transferred to wells containing TF-1 cells. The cells were stimulated for 72 h at 37° C. in a humidified 5% CO2 atmosphere. During the last four hours of incubation, 19 μl of 2× diluted CCK-8 (Fluka, Sigma Aldrich), was added per well to determine the proliferative responses. The absorbance was measured at 450 nm using a microplate reader (Victor3, Perkin Elmer). The data on cell growth was assessed by non-linear regression to a four-parameter dose-response curve, and the half maximal inhibitory concentration (IC50) was determined using GraphPadPrism program.
His6-tagged IL-1R-I specific Z variants were tested for their inhibitory capacity in the TF-1 cell assay. The assay was run as described in Example 2. The data on cell growth was assessed by non-linear regression to a four-parameter dose-response curve, and IC50 values were determined using GraphPadPrism program. His6-tagged Z12967 was included for comparison.
His6-tagged IL-1R-I specific Z variants were tested for their inhibitory capacity in the TF-1 cell assay. The assay was run as described in Example 2. The data on cell growth was assessed by non-linear regression to a four-parameter dose-response curve, and IC50 values were determined using GraphPadPrism program. His6-tagged Z12967, Z16065, Z16163 and Z18557 were included for comparison.

The target of another series is T1, hIL-1R-I (Homo sapiens, UniProt P14778).
T1 construct: purchased R&D Systems 269-1R/CF
T1 sequence (P14778 18-569): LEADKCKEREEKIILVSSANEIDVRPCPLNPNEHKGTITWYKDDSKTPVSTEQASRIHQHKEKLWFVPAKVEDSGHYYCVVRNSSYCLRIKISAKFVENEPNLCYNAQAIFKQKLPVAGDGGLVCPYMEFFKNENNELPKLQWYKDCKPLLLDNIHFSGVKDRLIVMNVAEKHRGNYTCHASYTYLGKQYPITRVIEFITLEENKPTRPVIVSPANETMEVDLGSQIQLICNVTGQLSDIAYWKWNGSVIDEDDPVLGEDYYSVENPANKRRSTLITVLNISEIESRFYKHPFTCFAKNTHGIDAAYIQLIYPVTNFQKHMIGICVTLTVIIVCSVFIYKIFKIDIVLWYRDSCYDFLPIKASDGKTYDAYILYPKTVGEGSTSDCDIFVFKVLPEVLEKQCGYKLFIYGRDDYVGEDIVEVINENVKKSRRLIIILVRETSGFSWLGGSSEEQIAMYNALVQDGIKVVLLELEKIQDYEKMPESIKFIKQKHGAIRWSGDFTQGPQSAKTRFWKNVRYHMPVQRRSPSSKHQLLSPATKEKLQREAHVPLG
Description: Biacore affinity/kinetic analysis of His6-tagged Z variants, human IL-1R-I. The format is binding. The conditions noted are these: His6-Z polypeptides binding to human IL-1R-I, Biacore, Table 19; for Kd: read-out: KD. The protocol:
Affinities (KD) for human and cynomolgus IL-1R-I were determined for His6-tagged Z variants using a Biacore 2000 instrument (GE Healthcare). hIL-1R-I or cIL-1R-I-His6 was immobilized on the carboxylated dextran layer in different flow cells of a CM5 chip (GE Healthcare, cat. no. BR100012). The immobilization was performed using amine coupling chemistry according to the manufacturer's protocol. Acetate pH 4.5 (GE Healthcare, cat. no. BR100350) was used for ligand dilution and HBS-EP (GE Healthcare, cat. no. BR100188) was used as running buffer. One flow cell surface on the chip was activated and deactivated for use as blank during analyte injections. In the kinetic experiment, HBS-EP was used as running buffer, the flow rate was 50 μl/min and the temperature was 25° C. The analytes, i.e. the Z variants, were each diluted in HBS-EP buffer to final concentrations of 40 nM and 10 nM, and were injected over the target chip surfaces for 2 min, followed by dissociation in running buffer for 8 min. Kinetic constants were calculated from the obtained sensorgrams using a 1:1 binding model, in the BiaEvaluation software 4.1 (GE Healthcare).
The kinetic constants (kon and koff) and affinities (KD) for human and cynomolgus IL-1R-I were determined for His6-tagged Z variants using a Biacore 2000 instrument (GE Healthcare). The experiment was run essentially as described in Example 2, using 100, 10 and 1 nM of the Z variants. The analyte injection time was 3 min followed by 15 min dissociation and 2×5 s glycine pH 3.0 (GE Healthcare, cat. no. BR100357), supplemented with 0.5 M NaCl, was used for regeneration of the surfaces between the cycles. Kinetic constants were calculated from the obtained sensorgrams of two or three concentrations of the respective Z variant, using a 1:1 binding model in the BiaEvaluation software 4.1 (GE Healthcare). His6-tagged Z12967 was included in the assay for comparison.
The kinetic constants (kon and koff) and affinities (KD) for human and cynomolgus IL-1R-I were determined for His6-tagged Z variants using a Biacore 2000 instrument (GE Healthcare). The experiment was run essentially as described in Example 5, using 48, 12, 3 and 0.75 nM of the Z variants. The analyte injection time was 3 min followed by 6 min dissociation and 2×5 s glycine pH 3.0, supplemented with 0.5 M NaCl, was used for regeneration of the surfaces between the cycles. Kinetic constants were calculated from the obtained sensorgrams of three or four concentrations of the respective Z variant, using a 1:1 binding model in the BiaEvaluation software 4.1 (GE Healthcare). His6-tagged Z12967 (SEQ ID NO:9), Z16065 (SEQ ID NO:268), Z16163 (SEQ ID NO:359) and Z18557 (SEQ ID NO:1205) were included in the assay for comparison.
In general terms: In SPR one partner is held on a chip, and binding of the other changes the refractive index at the surface.

Series [1] is described as follows: Circular dichroism (CD) spectroscopy analysis, melting temperature and refolding. Format: physicochemical. The conditions noted are these: for Melting temperatures (Tm): His6-tagged Z variants, CD variable temperature measurement, Table 21; for thermo-stability and α-helical content versus Z variants having alanine in position X5: His6-tagged, valine or isoleucine in position X5 of the BM (Example 9). The protocol:
Purified His6-tagged Z variants were diluted to 0.5 mg/ml in PBS. For each diluted Z variant, a CD spectrum at 250-195 nm was obtained at 20° C. In addition, a variable temperature measurement (VTM) was performed to determine the melting temperature (Tm). In the VTM, the absorbance was measured at 221 nm while the temperature was raised from 20 to 90° C., with a temperature slope of 5° C./min. A new CD spectrum was obtained at 20° C. after the heating procedure in order to study the refolding ability of the Z variants. The CD measurements were performed on a Jasco J-810 spectropolarimeter (Jasco Scandinavia AB) using a cell with an optical path length of 1 mm.
CD was analyzed for His6-tagged Z variants, as described in Example 2.

B1: Z19159: IL-1R-I binding Z variant with valine or isoleucine in position X5 (protein)
chain: AQHDEALEVDAKYAKETEEVQMEIFALPNLTRRQYTAFIRKLLDDPSQSSELLSEAKKLNDSQAPKVDYVLAEAKVLANRELDKYGVSDYYKNLINNAKTVEGVKALIDEILAALPYVPG
A word on the IC50: it is the concentration that inhibits the measured activity by half. As a reminder, the koff is the first-order rate constant of dissociation. The kon is the rate constant with which the complex forms. The Kd is the equilibrium constant for the complex coming apart. In the series on TF-1 cells, B1 returned an IC50 of 1.2 nM. In the series with hIL-1R-I, the koff was determined as 0.005 s⁻¹, the kon was 2.7e+07 M⁻¹ s⁻¹ and the equilibrium dissociation constant (Kd) is 0.19 nM. Besides, in series [1], the “Melting temperatures (Tm)” value came to 54 °C; the “thermo-stability and α-helical content versus Z variants having alanine in position X5” value is reported as “not substantially different”.

B2: Z18866 (protein)
chain: B1 chain with T17I, V20I, A26H, R33K
As for B2, in the series with hIL-1R-I, the koff came out at 0.0042 s⁻¹, the kon is 3.6e+07 M⁻¹ s⁻¹ and the Kd came out at 0.12 nM. For the same molecule, in series [1], the “Melting temperatures (Tm)” value stood at 61 °C.

B3: Z19172: IL-1R-I binding Z variant with valine or isoleucine in position X5 (protein)
chain: B1 chain with T17L, E19D, M22L, A26S
As to B3, in the series on TF-1 cells, the IC50 was determined as 2 nM. In the series with hIL-1R-I, the koff was 0.023 s⁻¹, the kon was found to be 4.9e+07 M⁻¹ s⁻¹ and the Kd came to 0.46 nM. In series [1], the “Melting temperatures (Tm)” value stood at 59 °C; the “thermo-stability and α-helical content versus Z variants having alanine in position X5” value is “not substantially different”.

B4: Z18882 (protein)
chain: B1 chain with T17V, A26D
For B4, in the series with hIL-1R-I, the koff amounted to 0.003 s⁻¹, the kon was found to be 1.2e+07 M⁻¹ s⁻¹ and the Kd is 0.25 nM. Besides, the “Melting temperatures (Tm)” value in series [1] came to 53 °C.

B5: Z19181: IL-1R-I binding Z variant with valine or isoleucine in position X5 (protein)
chain: B1 chain with T17V, M22L, F25Y, A26S
Take B5: the IC50 with TF-1 cells came out at 4.6 nM. Further, in the series with hIL-1R-I, the koff is 0.016 s⁻¹, the kon stood at 2e+07 M⁻¹ s⁻¹ and the Kd was 0.82 nM. Moreover, in series [1], the “Melting temperatures (Tm)” value stood at 61 °C; the “thermo-stability and α-helical content versus Z variants having alanine in position X5” value is listed as “not substantially different”.

B6: Z18968: IL-1R-I binding Z variant with valine or isoleucine in position X5 (protein)
chain: B1 chain with T17L, M22L, A26R, R40I
Regarding B6, in the series with TF-1 cells, half-maximal inhibition (IC50) required 1.4 nM. Besides, in the series with hIL-1R-I, the koff worked out at 0.0084 s⁻¹, the kon is 3e+07 M⁻¹ s⁻¹ and the Kd is 0.28 nM. Moreover, in series [1], the “Melting temperatures (Tm)” value came out at 62 °C; the “thermo-stability and α-helical content versus Z variants having alanine in position X5” value was “not substantially different”.

B7: Z18799 (protein)
chain: B1 chain with T17V, E19A, V20I, A26H, R33K, L43F
Consider B7, for which, in the series with hIL-1R-I, the koff came to 0.0045 s⁻¹, the on-rate (kon) was 2.6e+07 M⁻¹ s⁻¹ and the Kd was determined as 0.18 nM. In addition, in series [1], the “Melting temperatures (Tm)” value turned out to be 60 °C.

B8: Z18875 (protein)
chain: B1 chain with T17I, E19A, V20I, A26H
Take B8: in the series with hIL-1R-I, the koff amounted to 0.0028 s⁻¹, the kon is 2.4e+07 M⁻¹ s⁻¹ and the Kd amounted to 0.12 nM. In addition, the “Melting temperatures (Tm)” value in series [1] amounted to 61 °C.

B9: Z18912: IL-1R-I binding Z variant with valine or isoleucine in position X5 (protein)
chain: B1 chain with V20I, A26H, R33K
Take B9: the half-maximal inhibitory concentration (IC50) in the series on TF-1 cells was 1 nM. Also, in the series with hIL-1R-I, the koff came to 0.019 s⁻¹, the kon worked out at 9.2e+07 M⁻¹ s⁻¹ and the Kd was 0.21 nM. Also, in series [1], the “Melting temperatures (Tm)” value was 53 °C; the “thermo-stability and α-helical content versus Z variants having alanine in position X5” value is “not substantially different”.

B10: Z18888 (protein)
chain: B1 chain with T17V, E19A, V20I, A26H, R33K
Take B10: in the series with hIL-1R-I, the koff was found to be 0.0029 s⁻¹, the kon was 1.8e+07 M⁻¹ s⁻¹ and the Kd was determined as 0.16 nM. The “Melting temperatures (Tm)” value in series [1] came to 61 °C.
